Some of the results follow. No stated cut-off is given here; in the data, active = 3.2 or more and inactive = the rest. Most of these values are background signal.
B1: ACD11_HUMAN_324 (peptide)
chain: AGIAQGVYSRYLLGN
B2: DDR1_HUMAN_484 (peptide)
chain: GPREPPPYQEPRPRG
B3: DCTN2_HUMAN_86 (peptide)
chain: TGYESGEYEMLGEGL
B4: CTND1_HUMAN_221_YA (peptide)
chain: SRHAEDGYPGGSDNA
B5: ACBG1_HUMAN_658 (peptide)
chain: EKKDEAVYQAIEEGI
B6: CRKL_HUMAN_127_YA (peptide)
chain: TAEDNLEYVRTLADF
B7: CTND1_HUMAN_228 (peptide)
chain: YPGGSDNYGSLSRVT
B8: CTND2_HUMAN_516 (peptide)
chain: CPSVESPYSKSGPAL
B9: CSF1R_HUMAN_923 (peptide)
chain: EDRRERDYTNLPSSS
B10: DDX3Y_HUMAN_103 (peptide)
chain: DDRGRSDYDGIGNRE
B11: CSNK2A1_HUMAN_182_YA (peptide)
chain: DWGLAEFYHPGQEAN
B12: CSF1R_HUMAN_561_YA (peptide)
chain: ESAEGNSYTFIDPTQ
B13: DGKK_HUMAN_78 (peptide)
chain: SESATELYTEPTPEP
B14: CTND1_HUMAN_221 (peptide)
chain: SRHYEDGYPGGSDNY
B15: CSF2RB_HUMAN_466_YA (peptide)
chain: ALRFCGIYGARLRRK
B16: DDX5_HUMAN_593_YA (peptide)
chain: NGMNQQAYAAPATAA
B17: CSK22_HUMAN_13 (peptide)
chain: AGSRARVYAEVNSLR
B18: DDR1_HUMAN_792 (peptide)
chain: FGMSRNLYAGDYYRV

Molecular target: SHP2 C-SH2 domain E139D
Test: enrichment score (SH2-bound / input frequency) (ratio); bacterial display of known human phosphotyrosine sites (pTyr-Var adds point mutants) read by sequencing; higher = stronger binding; tyrosines were phosphorylated by kinases first
Settings: peptide library: Human pTyr
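Further: displayed peptides selected on beads carrying the immobilized SH2 domain, with library peptides lacking any tyrosine serving as negative controls.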

Binder	enrichment score
B1	inactive: 0.652
B2	inactive: 1.16
B3	inactive: 0.552
B4	inactive: 0.686
B5	inactive: 1.03
B6	inactive: 0.801
B7	inactive: 0.653
B8	inactive: 1.48
B9	inactive: 0.736
B10	inactive: 0.638
B11	inactive: 0.596
B12	inactive: 0.558
B13	inactive: 0.921
B14	inactive: 0.68
B15	inactive: 0.617
B16	inactive: 0.727
B17	inactive: 2.29
B18	inactive: 0.734

Molecular target: SHP2 C-SH2 domain wild-type
Test: as above
Settings: peptide library: Human pTyr

Binder	enrichment score
B1	inactive: 0.518
B2	inactive: 1.09
B3	inactive: 0.568
B4	inactive: 0.613
B5	inactive: 0.855
B6	inactive: 0.784
B7	inactive: 0.527
B8	inactive: 1.15
B9	inactive: 0.672
B10	inactive: 0.507
B11	inactive: 0.571
B12	inactive: 0.602
B13	inactive: 0.773
B14	inactive: 0.689
B15	inactive: 0.74
B16	inactive: 0.61
B17	active: 5.43
B18	inactive: 0.7

Molecular target: SHP2 N-SH2 domain L43F
Test: as above
Settings: peptide library: Human pTyr

Binder	enrichment score
B1	inactive: 0.665
B2	inactive: 0.991
B3	inactive: 0.686
B4	inactive: 0.74
B5	inactive: 1.09
B6	inactive: 0.638
B7	inactive: 0.592
B8	inactive: 1.17
B9	inactive: 0.67
B10	inactive: 0.628
B11	inactive: 0.722
B12	inactive: 0.673
B13	inactive: 0.955
B14	inactive: 0.622
B15	inactive: 0.696
B16	inactive: 0.786
B17	inactive: 0.699
B18	inactive: 0.832

Molecular target: SHP2 N-SH2 domain T42A
Test: as above
Settings: peptide library: Human pTyr

Binder	enrichment score
B1	inactive: 0.594
B2	inactive: 1.03
B3	inactive: 0.524
B4	inactive: 0.591
B5	inactive: 1
B6	inactive: 0.737
B7	inactive: 0.595
B8	inactive: 1.23
B9	inactive: 0.62
B10	inactive: 0.497
B11	inactive: 0.585
B12	inactive: 0.516
B13	inactive: 0.983
B14	inactive: 0.518
B15	inactive: 0.751
B16	inactive: 0.732
B17	inactive: 0.901
B18	inactive: 0.644

Molecular target: SHP2 N-SH2 domain T52S
Test: as above
Settings: peptide library: Human pTyr

Binder	enrichment score
B1	inactive: 0.744
B2	inactive: 1.46
B3	inactive: 0.492
B4	inactive: 0.644
B5	inactive: 1.18
B6	inactive: 1.12
B7	inactive: 0.74
B8	inactive: 1.21
B9	inactive: 0.602
B10	inactive: 0.633
B11	inactive: 0.682
B12	inactive: 0.863
B13	inactive: 0.941
B14	inactive: 0.569
B15	inactive: 0.669
B16	inactive: 0.741
B17	inactive: 0.624
B18	inactive: 0.837

Molecular target: SHP2 N-SH2 domain wild-type
Test: as above
Settings: peptide library: Human pTyr

Binder	enrichment score
B1	inactive: 0.74
B2	inactive: 1.25
B3	inactive: 0.559
B4	inactive: 0.734
B5	inactive: 1.08
B6	inactive: 0.888
B7	inactive: 0.695
B8	inactive: 1.26
B9	inactive: 0.666
B10	inactive: 0.635
B11	inactive: 0.658
B12	inactive: 0.514
B13	inactive: 1.1
B14	inactive: 0.622
B15	inactive: 0.739
B16	inactive: 0.758
B17	inactive: 0.69
B18	inactive: 0.926
